# Laboratory results as given in PubChem BioAssay AID588855 (National Center for Advancing Translational Sciences (NCATS), 2011).
# The campaign covered roughly 410,000 compounds. About 5,000 (1.2%) were called active. Inconclusive means that the source gave no clear call. Such entries were picked first, then a sample of the others. The call rests on the fitted dose curve; in most records, active means well fitted inhibition curve with a large enough effect; inconclusive means small, poorly fitted or top-dose-only effect; inactive means no such curve, though single readings can be large or run the other way. Where the call is inconclusive, the potency comes from a doubtful curve fit.
# Assay: qHTS for Inhibitors of TGF-b; further: nearly all actives have a fitted effect of over 65% in size
# Conditions: HepG2 CAGA-GFP TGF-b/SMAD3 reporter, GFP fluorescence, 18 h, TGF-beta stimulated, 500 pg/mL final; series mostly up to 46.1 µM
# In short: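 Per well, imaged GFP fluorescence of HEPG2 CAGA-GFP cells gives the signal; cells get compound, then TGF-beta (500 pg/mL final), 18 h at 37 degrees C; %Activity versus -TGF-beta and +DMSO controls.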
# Potency means the concentration at half of the fitted maximal effect; tags describe the fitted curve by direction and shape.
row,Compound,Potency
1,COc1ccccc1CC(=O)Nc1ccc(S(=O)(=O)N2CCCCC2)cc1,inactive
2,COc1cccc(CNc2ccc(F)c(Cl)c2)c1O,inactive
3,O=C(OCC(=O)N1CCc2ccccc2C1)c1ccc(O)cc1,inactive
4,CC(C)Oc1ccc(CN2CCC(n3nccc3NC(=O)CCc3ccccc3)CC2)cc1,"inconclusive: 3.16 µM [inhibitor, single point]"
5,O=C(Cn1cc(SCc2ccc(C(F)(F)F)cc2)c2ccccc21)N1CCCCCC1,"inconclusive: 0.1 µM [inhibitor, full curve, poor fit]"
6,CCC(=O)N1c2ccc(S(=O)(=O)N3CCN(c4ccc([N+](=O)[O-])cc4)CC3)cc2CC1C (configuration not stated),"inconclusive: 1.78 µM [inhibitor, full curve]"
7,CC1(C)CC(=O)C2=C(C1)NC1=C(C(=O)c3ccccc31)C2c1ccccc1 (configuration not stated),inactive
8,CCN(CC)c1cc(Cl)nc(N)n1,"inconclusive: 35.5 µM [inhibitor, single point]"
9,CCCC(=O)NC(Nc1cc(C(F)(F)F)ccc1Cl)C(Cl)(Cl)Cl (configuration not stated),"inconclusive: 35.5 µM [inhibitor, single point]"
10,COc1ccc(C2CC(=O)c3cc(-c4nc(-c5cccc([N+](=O)[O-])c5)cs4)c(=O)n(-c4ccc(C)c(C)c4)c3C2)cc1 (configuration not stated),"inconclusive: 2.51 µM [inhibitor, partial curve, poor fit]"
11,O=C(NNc1nc(-c2ccc(Cl)cc2)cs1)c1ccco1,"inconclusive: 10 µM [inhibitor, single point]"
12,C=CC[C@H](CC(=O)N(CCO)Cc1ccccc1)C(=O)N[C@@H](COC(=O)[C@@H](CC=C)Cc1ccc(F)cc1)Cc1ccccc1,"inconclusive: 35.5 µM [inhibitor, single point]"
13,O=C(CSC1CS(=O)(=O)c2cc([N+](=O)[O-])ccc21)NNC(=O)c1ccccc1 (configuration not stated),"inconclusive: 12.6 µM [inhibitor, partial curve]"
14,CCC(C)[C@H](NC(=O)N1CCn2c1nc1ccccc12)C(=O)NCCc1ccc(OC)c(OC)c1 (some centres not stated),"inconclusive: 17.8 µM [inhibitor, single point]"
15,O=C(N/N=C/c1ccc(O)cc1)c1cccc(C(F)(F)F)c1,inactive
16,O=C1OCCN1C(=O)[C@H]1[C@H](c2ccc(F)cc2)C(c2ccccc2)=NN1c1ccccc1,"inconclusive: 35.5 µM [inhibitor, single point]"
17,COc1cc(C(CCN2CCOCC2)c2c(OC)cc(OC)c3c2OC(=O)CC3c2ccc(N(C)C)cc2)cc(OC)c1OC (configuration not stated),inactive
18,COc1ccc(C2CC(c3cccc(C(F)(F)F)c3)=NN2c2ccc(S(N)(=O)=O)cc2)cc1 (configuration not stated),"inconclusive: 35.5 µM [inhibitor, single point]"
19,O=C(NCCc1ccccn1)c1cc(-c2ccc(Cl)cc2)nc2ccccc12,"inconclusive: 15.8 µM [inhibitor, single point]"
20,Cc1cccc(N2CCN(CCCNC(=O)C3CCCN(c4ncnc5c4nc4n5CCCCC4)C3)CC2C)c1 (configuration not stated),"inconclusive: 22.4 µM [inhibitor, single point]"
21,COc1ccc(NC(=S)NC(NC(C)=O)C(Cl)(Cl)Cl)c([N+](=O)[O-])c1 (configuration not stated),inactive
22,O=C1C=C(c2ccc3ncccc3c2)C[C@@H](c2ccc(Cl)cc2)C1,"inconclusive: 15.8 µM [inhibitor, single point]"
23,Cn1ccnc1Sc1cc(NCCCO)c([N+](=O)[O-])c2nonc12,"inconclusive: 35.5 µM [inhibitor, single point]"

row,Compound,Potency
1,CCOc1ccccc1N1CCN(C(=O)c2cc(S(=O)(=O)N(C)C)ccc2N2CCCC2)CC1,inactive
2,Cc1ccc(N(C)S(=O)(=O)c2ccc3[nH]c4c(c3c2)CCCC4)cc1,"inconclusive: 25.1 µM [inhibitor, partial curve, poor fit]"
3,O=C(CCN1C(=O)/C(=C/c2ccccc2Cl)SC1=S)N1CCOCC1,"inconclusive: 0.112 µM [inhibitor, full curve, poor fit]"
4,CN1CCN(CC(=O)c2ccccc2F)CC1,"inconclusive: 35.5 µM [inhibitor, single point]"
5,Cc1ccc(CN/C=C/C(=O)c2ccc(Br)cc2)cc1,"inconclusive: 35.5 µM [inhibitor, single point]"
6,CCN(CC)S(=O)(=O)c1cc(NC(=O)COc2ccc(C#N)cc2OC)ccc1C,"inconclusive: 10 µM [inhibitor, partial curve, poor fit]"
7,O=C(NC1CCCCC1)N1CCSC1=Nc1ccccc1,"inconclusive: 25.1 µM [inhibitor, single point]"
8,O=c1[nH]c2ccccc2cc1-c1nnn(-c2ccc(Cl)c(Cl)c2)n1,"inconclusive: 5.01 µM [inhibitor, partial curve]"
9,Cc1cccc(Nc2nnc(SC/C(O)=C(\C#N)c3nc4ccccc4[nH]3)s2)c1,"inconclusive: 22.4 µM [inhibitor, single point]"
10,O=S(=O)(Nc1nc2ccccc2nc1Cl)c1ccc(F)cc1,"inconclusive: 11.2 µM [inhibitor, partial curve, poor fit]"
11,CCC(CC)C(=O)c1c[nH]c(C(=O)NN)c1,inactive
12,O=C1CS(=O)(=O)N(Cc2ccccc2F)c2ccc(Br)cc21,active: 12.6 µM
13,O=C(N/N=C\c1cn[nH]c1-c1ccc(Cl)cc1)c1cccs1,active: 10 µM
14,CC(C)(C)c1cc(C(=O)N/N=C/c2ccc(-c3ccccc3[N+](=O)[O-])o2)n[nH]1,"inconclusive: 20 µM [inhibitor, single point]"
15,COC(=O)C1=C(C)N(Cc2ccccc2)C(=NCc2ccccc2)N[C@H]1c1cccc(F)c1,"inconclusive: 14.1 µM [inhibitor, single point]"
16,O=C(NC1CCCCCCC1)c1ccccc1-c1ccccc1,inactive
17,CCNc1nc(NCC)nc(SCCOc2ccc(C)cc2)n1,"inconclusive: 25.1 µM [inhibitor, single point]"
18,O=C(Nc1cccc([N+](=O)[O-])c1)c1ccc2nc(N3C(=O)CCC3=O)sc2c1,"inconclusive: 22.4 µM [inhibitor, single point]"
19,CC1(C(=O)NCc2cccs2)CCN1CCc1ccccc1 (configuration not stated),"inconclusive: 35.5 µM [inhibitor, single point]"
20,CCOC(=O)c1ccc(Oc2cn[nH]c2-c2ccc(O)cc2O)cc1,"inconclusive: 22.4 µM [inhibitor, single point]"
21,CCCN(CC(=O)Nc1ccc(F)c(F)c1F)C(=O)CCc1nc2ccccc2c(=O)[nH]1,inactive
22,Cc1nnc(N2CCCC(C(=O)Nc3cccc(C(F)(F)F)c3)C2)c2nn(-c3ccccc3)c(C)c12 (configuration not stated),"inconclusive: 35.5 µM [inhibitor, single point]"
23,O=C(Nc1cccc(Cl)c1)c1cc(-c2ccc3c(c2)OCCO3)on1,inactive

row,Compound,Potency
1,Nc1c([N+](=O)[O-])cnnc1-c1ccccc1,inactive
2,COc1ccc(/C=N/NC(=O)CCn2cnc(-c3ccccc3)c2-c2ccccc2)cc1OC,"inconclusive: 35.5 µM [inhibitor, single point]"
3,N#Cc1ccc(NC(=O)Cn2c3[n+](c4ccc(C(F)(F)F)cc42)CCCCC3)cc1,inactive
4,Cc1cccc(C(=O)Nc2cccc(OCc3cc(=O)n4cccc(C)c4n3)c2)c1,inactive
5,Cc1cccc(N(C)C(CNS(=O)(=O)c2ccccc2)c2ccccc2)c1 (configuration not stated),"inconclusive: 22.4 µM [inhibitor, partial curve, poor fit]"
6,COc1ccc(C2(C)NC(=O)N(CC(=O)Nc3ccc4[nH]c(=O)[nH]c4c3)C2=O)cc1 (configuration not stated),"inconclusive: 3.98 µM [inhibitor, partial curve, poor fit]"
7,CCNC(=S)N/N=C/c1sc(N2CCCCC2)nc1-c1cccs1,"inconclusive: 3.55 µM [inhibitor, single point]"
8,COc1ccccc1-c1nc(C#N)c(N2CCC(Cc3ccccc3)CC2)o1,"inconclusive: 31.6 µM [inhibitor, single point]"
9,COc1ccc(-c2cc(NCc3ccccn3)n3ncnc3n2)cc1,inactive
10,CN1/C(=C\P(=O)(N(C)C)N(C)C)C(C)(C)c2ccccc21,"inconclusive: 15.8 µM [inhibitor, partial curve, poor fit]"
11,C/[N+]([O-])=C\c1coc2ccccc2c1=O,inactive
12,CCOC(=O)c1c(C)[nH]c(C)c1C(=O)COc1ncnc2cc([N+](=O)[O-])ccc12,inactive
13,CCn1cc(CN2CCN(Cc3ccccc3)C(CCO)C2)c2ccccc21 (configuration not stated),inactive
14,Cc1cccn2c(=O)c(C(=O)NCc3ccccc3Cl)c(O)nc12,inactive
15,COc1ccccc1C/C(N)=N/O,"inconclusive: 3.55 µM [inhibitor, single point]"
16,Cc1ccc(C)c(N2CCN(S(=O)(=O)c3ccc4c(c3)C(C)(C)C(=O)N4C)CC2)c1,"inconclusive: 15.8 µM [inhibitor, single point]"
17,Cc1nn(C)c(C(=O)N2CCc3ccccc32)c1Cl,"inconclusive: 6.31 µM [inhibitor, single point]"
18,CCOc1ccc(-n2nc(CO)c(C(=O)NCc3cccnc3)n2)cc1,"inconclusive: 35.5 µM [inhibitor, single point]"
19,CC(=O)c1sc(N)nc1C,"inconclusive: 35.5 µM [inhibitor, single point]"
20,COc1ccc(-c2noc(-c3ccc(N4CCN(c5ccc(OC)cc5)CC4)c([N+](=O)[O-])c3)n2)cc1,"inconclusive: 0.355 µM [inhibitor, full curve, poor fit]"
21,O=C(Nc1cc(C(F)(F)F)cc(C(F)(F)F)c1)[C@H]1O[C@@H](n2ccc(=O)[nH]c2=O)[C@H](O)[C@@H]1O,"inconclusive: 35.5 µM [inhibitor, single point]"
